The whole screen tested about 420,000 compounds, of which about 50,000 (12%) were called active. Inconclusive results, whose numbers are uncertain, are shown with a selection of clear calls. Calls follow the shape of the dose curve; as a rule, active = well fitted inhibition curve with a large enough effect; inconclusive = small, poorly fitted or top-dose-only effect; inactive = flat fitted curve, though single readings scatter. No potency is given beside an inconclusive call; the fits are too rough.
Assay: qHTS for Inhibitors of human tyrosyl-DNA phosphodiesterase 1 (TDP1): qHTS in cells in presence of CPT; also: nearly all actives have a fitted effect of over 55% in size
Conditions: chicken DT40 Tdp1-/-;hTDP1 cells + 20 nM CPT, ATP luminescence, 48 h; series mostly up to 46.2 µM
How it was run: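 Chicken DT40 Tdp1-/- cells stably complemented with human TDP1 were seeded at 400 cells/well in medium containing 20 nM camptothecin, exposed to pin-transferred compounds, and grown at 37 °C for at least 48 hr. Viability was read as ATP luminescence.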
With `CCc1cc2c(=O)n(Cc3ccco3)c(SCC(=O)N(C)C3CCS(=O)(=O)C3)nc2s1` (centres undefined) the Potency was “inactive”. In the case of `CC(C)NS(=O)(=O)c1ccc(NC(=O)C2CC3C=CC2C3)cc1` (centres undefined), the Potency is reported as inconclusive [inhibitor, partial curve, poor fit]. In the case of `CC1CCN(c2ccc(C(=O)O)cc2NS(=O)(=O)c2ccc(Br)cc2)CC1`, the Potency is reported as “inactive”. With `Cn1c(SCC2CCCO2)nnc1-c1ccc([N+](=O)[O-])cc1` (centres undefined) the Potency was “inactive”. In the case of `O=C(c1cccn2c(=O)c3cc(Cl)ccc3nc12)N1CCN(c2ccccc2F)CC1`, the Potency is reported as inconclusive [inhibitor, single point]. For `Cc1ccccc1OCC(O)CN1CCN(CC(O)COc2ccccc2C)CC1` (centres undefined), the Potency was inconclusive [inhibitor, single point]. With `Cc1ccccc1-c1cc(C(=O)NCc2cccc(C(F)(F)F)c2)nn1CC1CC(c2cccc([N+](=O)[O-])c2)=NO1` (centres undefined) the Potency was inconclusive [inhibitor, partial curve, poor fit]. In the case of `CC(=O)c1ccc2c(c1)C1C=CCC1C(c1cc3c(cc1Br)OCO3)N2` (centres undefined), the Potency is reported as active: 3.66 µM. With `O=C(Nc1ccc(N2CCN(C(=O)c3cccs3)CC2)cc1)c1ccccc1F` the Potency was inconclusive [inhibitor, single point]. In the case of `Nc1nonc1-c1nc2ccccc2n1Cc1cccc(Cl)c1`, the Potency is reported as “inactive”. With `Cc1nnc2n1N=CC=C(c1ccccc1)S2` the Potency was active: 8.2 µM. For `CCOc1ccc(NC(=O)CC2C(=O)N(c3ccc(C)cc3)C(=O)N2CCC2=CCCCC2)cc1` (centres undefined), the Potency was inconclusive [inhibitor, partial curve]. For `CN(C)c1ccc(/C=C(\C#N)C(=O)Nc2nc3c(s2)CCN(Cc2ccccc2)C3)cc1`, the Potency was inconclusive [inhibitor, partial curve]. In the case of `Cc1ccc(NC(=O)c2cc([N+](=O)[O-])ccc2NCc2cccnc2)cc1Cl`, the Potency is reported as inconclusive [inhibitor, single point]. In the case of `CCOc1ccc(-n2nc(CO)c(C(=O)NCCCc3ccccc3)n2)cc1`, the Potency is reported as active: 14.6 µM. In the case of `CC(=O)Nc1ccc(S(=O)(=O)N2CCC(c3nnnn3-c3ccccc3)CC2)cc1`, the Potency is reported as inconclusive [inhibitor, full curve]. In the case of `CN(C)S(=O)(=O)c1ccc(N2CCCC2)c(C(=O)OCC(=O)N2CCN(c3ccccc3)CC2)c1`, the Potency is reported as inconclusive [inhibitor, single point]. With `CCOC(=O)[C@H]1[C@H]2COc3ccc(Br)cc3[C@H]2N2C(=O)CNC(=O)[C@@]12C` the Potency was “inactive”. With `NC(=O)COc1ccccc1/C=C1/SC(=O)N(CC(=O)N2CCc3ccccc3C2)C1=O` the Potency was active: 20.6 µM.

Source: PubChem BioAssay AID686979 (National Center for Advancing Translational Sciences (NCATS), 2013)
Potency is read from the fitted curve at half-maximal effect; tags tell the direction and shape of the fitted curve.
